Data on 14 molecules can be found in PMC12136788.

This is one part of the list.

The chains are these.
T1: UNK ZnF1-3 (human, UniProt Q9C0B0 31-174)
T1 sequence: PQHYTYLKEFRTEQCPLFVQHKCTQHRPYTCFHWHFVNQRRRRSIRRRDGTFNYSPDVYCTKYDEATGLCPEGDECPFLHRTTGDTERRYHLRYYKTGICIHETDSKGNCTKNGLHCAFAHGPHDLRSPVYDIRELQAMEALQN

B1: chr8:96496865:96496866:-_ENSMUSG00000031751_ENSMUST00000053766|mus_mus|motif|central (ssRNA)
RNA: GGGAGUUCUACAGUCCGACGAUCCAAGUCCAGUCAACACCAGAAGAGGCCAUGCCUAGAGUUAAAAUGUGCAAUGUUUCGGAGGGGAAGAGAAAUGUCACAAAGAAAGUAUUACAAAGGAUUAAAUUUGUCAGCUGUCCACACCAACAGAGGAUUGAGCAUCA
B2: chr1:192779330:192779331:+_ENSG00000116741_ENST00000235382|hu_hu|FALSE|FALSE (ssRNA)
RNA: GGGAGUUCUACAGUCCGACGAUCUUGCUGUUUGCUUUUUUUGCCGGUUUUGGGCUUCCCAGGAGUAGAGGAAUUUUGUAAGAAGUAGCUCAAACGGGUCUUCCAAUCUUUUAAAAGGGUCCGUUUCAUCUUUUCUCGCUUCUCCAACAGAGGAUUGAGCAUCA
B3: chr3:148802587:148802588:-_ENSG00000071794_ENST00000310053|hu_mus|hu_hu_hu_mus_False|68_68 (ssRNA)
RNA: GGGAGUUCUACAGUCCGACGAUCUCCAACAACUUGUCCUCUCAUAGUUCCAAAUAAAACCAAAUCUACUUCUUCAUCACUCGUUAGGAAGUCAUCUGGAGGAAUAAUGUCUUGGAAUUCAAAAUGUGGCAAGAAAGUUGAGUACAACAGAGGAUUGAGCAUCA
B4: chr7:77240115:77240116:+_ENSG00000127947_ENST00000248594|hu_mus|FALSE|FALSE (ssRNA)
RNA: GGGAGUUCUACAGUCCGACGAUCUUCAUACUGCUCCUUUGUUUGUACUGCCGAGUGCCUCUGUGUUCUCAUUUCUUGUAUUAAAUUAAAUACAUUAAAUUCCUCUGGAAUUUUCCCUGCUUUCAGUAAGUUCCACGUGUAAUCCAACAGAGGAUUGAGCAUCA
B5: chr3:139257661:139257662:-_ENSG00000114115_ENST00000232219|hu_mus|motif|central (ssRNA)
RNA: GGGAGUUCUACAGUCCGACGAUCCACACACUGGAGUUUGUCACCAUCCCAGCUCACAGUGGUCAUGCACUUGCGGUCGUCGGUGCCUGUCAGAUCUUCCUCAAACUCCUUCCCAACUUGGAAGUCCAUGAUAUAGUUCCGAAACAACAGAGGAUUGAGCAUCA
B6: chr2:104430758:104430759:+_ENSMUSG00000027176_ENSMUST00000028599|mus_hu|FALSE|FALSE (ssRNA)
RNA: GGGAGUUCUACAGUCCGACGAUCGCUGAUUACAACGUGCGCACUGACCGUCGAUGGGAAGCUAGAAAAGAAAAAUUAAACUAAAAACCACCCCCAAAUCAGUAAAGUUACCCCCUGCCCAGCUGAGCCAGACCGCCAACACCACAACAGAGGAUUGAGCAUCA
B7: chr2:44428564:44428565:+_ENSG00000138032_ENST00000378551|hu_hu|motif|central (ssRNA)
RNA: GGGAGUUCUACAGUCCGACGAUCAAGAGCAGAUCCUGAUUUUCCAGCUGCCCUAAAGUCUUCGUUAGUAGUGAUGUGUUCGGAUAAAUGUGUUGAGCAGUAAUUUGCCACUCGGGAUCCAGCAUGACCAUCAUAAACUGCAAACAACAGAGGAUUGAGCAUCA
B8: 201681831_201681951_920_CDS_ENSG00000082153_ENST00000409600|human|control|control (ssRNA)
RNA: GGGAGUUCUACAGUCCGACGAUCAUUUUCAUUAUAAAGGCUAUUAAGAAUGGAUGCAUUAAGUGUUCCAUUAGCCAGAAGAACACCAGUCAACAUAGCUAGCUUGUUCCUCUCCGACUCUGAAAAACCCUUCAAGAACAGCAGCAACAGAGGAUUGAGCAUCA
B9: chr7:56126341:56126342:+_ENSG00000146731_ENST00000540286|hu_mus|hu_hu_hu_mus_True|38_98 (ssRNA)
RNA: GGGAGUUCUACAGUCCGACGAUCCAUGUUUCUCCUCUUAGCUCUGCGCAGAGCUACGAUCCCUUCUUUCGCAAGGGCAUCUAAGGAAAAGGGGUCAAUUCCCUUUUGAUUAAUAACGACAAAUCCUUUAUCUGAGUCACCACACAACAGAGGAUUGAGCAUCA
B10: chr7:151048522:151048523:+_ENSG00000013374_ENST00000566856|hu_mus|hu_hu_hu_mus_True|58_88 (ssRNA)
RNA: GGGAGUUCUACAGUCCGACGAUCCUGUUUCUUAUUUAUUACGAUCUUGAUAUAAUUUUCUUGAAAUCCGAAAGUUUCAGCUAUUUUACACCUCAGGUCUCUACCAGUGACAUGCAAGCGGGUCUCCAACAAGCUUUUCUUAUCCAACAGAGGAUUGAGCAUCA
B11: 126194392_126194681_755_CDS_ENSMUSG00000042500_ENSMUST00000084289|mouse|control|control (ssRNA)
RNA: GGGAGUUCUACAGUCCGACGAUCCAGAGGGUGGUAAUAACCUUCAGGAGGUGAGAAAAAAGACCGGCCUACUGGAGUGUACCUCAUAGAGGGGAGAUGCCUUGUAAUCACAUCAAGUGCUUGUACUGAGUCAUCUGGGACUUCCAACAGAGGAUUGAGCAUCA
B12: chr10:75830775:75830776:+_ENSG00000035403_ENST00000372755|perfect_dup|motif|central (ssRNA)
RNA: GGGAGUUCUACAGUCCGACGAUCCAUAGUCUCCACCACCUCUGCCACUGUAAGAUAUUCCAAAAUUCCUUUGCAAACUCGGAUAAUUUUACGGACCUCAGCCUCAUCGAAGGUAAGGAGCAGGUCUGAUGUUCCAGAGAGGAUCAACAGAGGAUUGAGCAUCA
B13: 39874737_39876001_2784_CDS_ENSG00000121892_ENST00000303538|human|control|control (ssRNA)
RNA: GGGAGUUCUACAGUCCGACGAUCAUCAGCAUUCAGACUCCUACUGAGUGGCUCAAAAAUCUGUGCAAGCUGGACUUCUUUAUUUGUGAAUAUGGCGUGUAUACAGUGCACAGCCUGUUUUGCUUGGUGUGGAGUACCCCUCUUCAACAGAGGAUUGAGCAUCA
B14: chr9:135984185:135984186:-_ENSG00000160271_ENST00000372050|hu_mus|FALSE|FALSE (ssRNA)
RNA: GGGAGUUCUACAGUCCGACGAUCAUCUGAGCCAGGCAUGUUGAGCUGUACAUAAGCCACCAGCUGCUUGAGGCAGGGAAAGUCCGGAGGUUGACAGAAAUCCUCUGAGUAUUGGUCCAGCCAGGUGCCCAGGAUGGAGGAGAUCAACAGAGGAUUGAGCAUCA

The assay deals with T1, UNK ZnF1-3. Description: nsRBNS (natural sequence RNA bind-n-seq); RBNS binding buffer (assumed for nsRBNS): 25 mM Tris pH 7.5, 150 mM KCl, 3 mM MgCl2, 0.01% Triton X-100, 500 ug/ml BSA, 20 U/ml SUPERase-In, 4 C; UNK is unkempt and MSI1 is Musashi-1; names of the RNAs are library labels; protein concentration not given here; high values mean tight binding.
Consider B1, for which the binding signal stood at 2.49 enrichment R.

As for B2, the binding signal was found to be 0.589 enrichment R.

The molecule B3 displayed a binding signal of 1.24 enrichment R.

Molecule B4 had a binding signal of 0.565 enrichment R.

In the case of B5, the binding signal came to 0.962 enrichment R.

B6 returned a binding signal of 2.24 enrichment R.

Molecule B7 displayed a binding signal of 1.05 enrichment R.

With B8, the binding signal was 0.853 enrichment R.

Molecule B9 came in with a binding signal of 0.752 enrichment R.

Turning to B10, the binding signal stood at 0.995 enrichment R.

In the case of B11, the binding signal was found to be 1.18 enrichment R.

B12: the binding signal was found to be 1.26 enrichment R.

Turning to B13, the binding signal stood at 1.15 enrichment R.

B14 showed a binding signal of 1.67 enrichment R.
